Laboratory results from PubChem BioAssay AID1745845 (National Center for Advancing Translational Sciences (NCATS), 2022).
“And” between values parts separate entries of the source, which are not always exact repeats. Equal entries are not always repeated. In all, about 360,000 compounds went through this assay and about 2,600 (0.72%) were called active. The inconclusive results got no clear call from the source; some entries with a clear call stand among them for comparison. Calls follow the shape of the dose curve; as a rule, active = well fitted inhibition curve with a large enough effect; inconclusive = small, poorly fitted or top-dose-only effect; inactive = no such curve, though single readings can be large or run the other way. Where the call is inconclusive, the potency comes from a doubtful curve fit.

Assay: Primary qHTS for Inhibitors of ATXN expression; also: nearly all actives have a fitted effect of over 55% in size
Settings: HEK-293 ATXN2-luciferase reporter, luminescence, 24 h; activity change, negative = inhibition: at 57 µM (top of the series)
Method in brief: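 ATXN2-luciferase reporter cells (luciferase flanked by upstream and downstream ATXN2 gene portions) were treated 24 h at 37 °C with compounds at up to 57 uM. SteadyGlo luminescence gave expression; GF-AFC fluorescence gave viability.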
% is scaled to controls: 0 for no effect and ±100 for the full control effect; potency is read from the fitted curve at half-maximal effect; tags tell the direction and shape of the fitted curve.

Row | SMILES | Potency | activity change, negative = inhibition
1 | O=[N+]([O-])c1c(NCCCO)cc(Sc2ccc(Cl)cc2)c2nonc12 | inconclusive: 28.2 µM [inhibitor, single point] | 
2 | CN1CCN(C(c2ccc(Cl)cc2)c2cc(Cl)c3cccnc3c2O)CC1 (stereo unspecified) | inconclusive: 39.8 µM [inhibitor, single point] | 
3 | Cc1cc(C(C)(C)C)oc1C(=O)N(CC(=O)NC1CCCC1)Cc1ccccc1Cl | inconclusive: 28.2 µM [inhibitor, single point] | 
4 | COc1ccc(-c2cc(C(F)(F)F)nc(S(=O)(=O)CCCC(=O)Nc3cc(C)on3)n2)cc1OC | inconclusive: 37.7 µM [inhibitor, single point] | 
5 | CCC[C@@H](NC(=O)[C@@H]1[C@H]2CCC[C@@H]2CN1C(=O)[C@@H](NC(=O)[C@@H](NC(=O)c1cnccn1)C1CCCCC1)C(C)(C)C)C(=O)C(=O)NC1CC1 | inconclusive: 27.3 µM [inhibitor, single point] | 
6 | CN1CCN(c2ccc(NC(=O)c3ccc4ccccc4c3)cc2)CC1 | active: 14.1 µM | 
7 | CN(C)C(=O)COC(=O)c1ccccc1OCC(=O)Nc1ccc(SC(F)F)cc1 |  | inactive: -17.1%
8 | C[C@H]1CN([C@@H](C)CO)C(=O)c2cccc(NC(=O)c3nc4ccccc4s3)c2O[C@H]1CN(C)C(=O)Nc1ccc(F)cc1 | inconclusive: 25.1 µM [inhibitor, single point] | 
9 | O=C(Cn1cc(/C=C\[N+](=O)[O-])c2ccccc21)Nc1ccccc1 | inconclusive: 39.8 µM [inhibitor, single point] | 
10 | CCCN(CCC)c1cc(C)nc2nc(-c3ccc(C(C)(C)C)cc3)nn12 |  | inactive: 11.4%
11 | COc1cc2c(cc1OC)C(c1cc3cc4c(cc3[nH]c1=O)OCO4)N(C(=O)C(C)C)CC2 (stereo unspecified) | inconclusive: 7.08 µM [inhibitor, single point] | 
12 | O=C(Nc1nnc(-c2ccccc2SCc2ccccc2F)s1)Nc1ccccc1F | inconclusive: 12.6 µM [inhibitor, partial curve, poor fit] | 
13 | CCOC(=O)c1c(-c2ccc(C)o2)csc1NC(=O)CN(C)CC(=O)Nc1ccc(C)cc1 | inconclusive: 39.8 µM [inhibitor, partial curve, poor fit] | 
14 | CN1CCN(Cc2ccc(NC(=O)Nc3ccc(Oc4cc(NC(=O)C5CC5)ncn4)cc3)cc2C(F)(F)F)CC1 | inconclusive: 0.432 µM [inhibitor, full curve, poor fit] | 
15 | COc1cc2c(cc1OC)[C@@H]1Cc3ccc(OC)c(OC)c3CN1CC2 | inconclusive: 21.7 µM [inhibitor, partial curve, poor fit] | 
16 | CCOc1ccccc1N=NC1C(=O)N(C(N)=S)N=C1C (stereo unspecified) | inconclusive: 4.47 µM [inhibitor, partial curve, poor fit] | 
17 | CCSC(=S)c1c(C)[nH]n(-c2ccccc2)c1=O | inconclusive: 16.8 µM [inhibitor, partial curve] | 
18 | COc1ccccc1N1CCN(C(=O)c2cc3cc(F)ccc3[nH]2)CC1 |  | inactive: -3.5%
19 | C=CCn1cnc2c(c1=O)c1nc3ccccc3nc1n2/N=C/c1cc(OC)c(OC)c(OC)c1 | inconclusive: 31.6 µM [inhibitor, single point] | 
20 | NNc1nc2ccc(F)cc2s1 | inconclusive: 39.8 µM [inhibitor, single point] | 
21 | COc1cccc(Cn2cnc(-c3ccccc3OC)c2-c2cc(C)cc(C)c2)c1 | inconclusive: 31.6 µM [inhibitor, single point] | 

Row | SMILES | Potency | activity change, negative = inhibition
22 | COc1ccc(NC(=O)C2(C)CCN2Cc2ccccc2Cl)cc1OC (stereo unspecified) | inconclusive: 39.8 µM [inhibitor, single point] | 
23 | COc1cc(C=CC(=O)CC(=O)C=Cc2ccc(O)c(OC)c2)ccc1O | inconclusive: 88.5 µM [inhibitor, single point] | 
24 | CC(C)(C)C1CCC(=NOC(=O)c2ccc(F)cc2)CC1 (stereo unspecified) | inconclusive: 8.44 µM [inhibitor, single point] | 
25 | Cc1ccc(NC(=O)c2ccccc2NS(=O)(=O)c2ccc(F)cc2)cc1S(=O)(=O)N1CCCCC1 | inconclusive: 31.6 µM [inhibitor, single point] | 
26 | COc1ccc(NC(=O)CC2C(=O)N(CCc3ccccc3)C(=S)N2Cc2cccnc2)cc1 (stereo unspecified) | inconclusive: 25.1 µM [inhibitor, single point] | 
27 | COC(=O)[C@@]1(Cc2ccc(F)cc2)[C@H]2c3cc(C(=O)N4CCCC4)n(Cc4ccc(C)o4)c3C[C@H]2CN1C(=O)c1ccccc1 | inconclusive: 39.8 µM [inhibitor, single point] | 
28 | CC(=O)Oc1ccc(/C=C/c2nc3ccccc3c(=O)o2)cc1 | inconclusive: 14.1 µM [inhibitor, partial curve, poor fit] | 
29 | O=C(Cn1ncc(Cl)c(Cl)c1=O)NC(=O)NC1CCCCC1 | inconclusive: 37.7 µM [inhibitor, single point] | 
30 | COc1ccc([N+](=O)[O-])cc1NC(=O)Nc1ccc(OC)c(OC)c1 | inconclusive: 22.4 µM [inhibitor, single point] | 
31 | CCN1C(=O)/C(=C\N(C(C)=O)c2ccccc2)OC1=S |  | inactive: 8.05%
32 | O=C(C1=C[C@H](c2ccc(C(F)(F)F)cc2)C[C@H](OCCCCO)O1)N1CCN(Cc2ccc3c(c2)OCO3)CC1 |  | inactive: -31.5%
33 | Cc1ccc(C(=O)N/N=C\c2ccc([N+](=O)[O-])s2)cn1 | inconclusive: 10 µM [inhibitor, partial curve, poor fit] | 
34 | CCCCCn1c(CCCNC(=O)c2ccccc2)nc2ccccc21 | inconclusive: 31.6 µM [inhibitor, single point] | 
35 | CCCS(=O)(=O)NC(=O)C1(C)CCCN(C(=O)c2ccc(C#N)cc2)C1 (stereo unspecified) |  | inactive: 13.9%
36 | CCOC(=O)c1[nH]ncc1CN1CCCC(C(=O)c2ccc(SC)cc2)C1 (stereo unspecified) |  | inactive: 1.6%
37 | Oc1ccccc1-c1nc(NC2CCCC2)c2ccccc2n1 |  | inactive: -7.97%
38 | C=CCc1ccc(OCCOCCOc2cccc3ccc(C)nc23)c(OC)c1 | inconclusive: 14.1 µM [inhibitor, partial curve] | 
39 | CC12CCC(C/C1=N\N=C1\NC(=O)/C(=C\c3cccc(Br)c3)S1)C2(C)C (stereo unspecified) | inconclusive: 39.8 µM [inhibitor, partial curve, poor fit] | 
40 | CCCN1CCN(CCCNC(=O)c2cc3c(s2)-c2c(C)cccc2OC3)CC1 | inconclusive: 25.1 µM [inhibitor, single point] and inconclusive: 28.2 µM [inhibitor, single point] | 
41 | C=CCN1CCc2c(cc(O)c(O)c2Cl)C(c2ccccc2)C1 (stereo unspecified) | inconclusive: 35.5 µM [inhibitor, single point] | 
42 | COc1ccc(-c2nc3c(c(=O)[nH]c(=O)n3Cc3ccccc3)n2Cc2ccccc2)cc1 | inconclusive: 22.4 µM [inhibitor, single point] | 

Row | SMILES | Potency | activity change, negative = inhibition
43 | C=C1C(=O)[C@]23C[C@H]1CCC2[C@]1(C)C(=O)CC[C@@](C)(C(=O)O)C1C[C@@H]3O (stereo partly specified) | active: 8.91 µM | 
44 | CC(C(=O)c1c[nH]c(C(N)=O)c1)c1ncc(C(F)(F)F)cc1Cl (stereo unspecified) | inconclusive: 3.55 µM [inhibitor, partial curve, poor fit] | 
45 | COc1ccccc1CC(O)CC1c2c(cc3c(c2OC)OCO3)CCN1C (stereo unspecified) | inconclusive: 3.16 µM [inhibitor, partial curve, poor fit] | 
46 | CC(=O)Nc1ccc(-c2nc3ccccc3c(=O)o2)cc1 | inconclusive: 10 µM [inhibitor, partial curve, poor fit] | 
47 | O=[N+]([O-])c1c(NCCCO)cc(Sc2nc3ccccc3s2)c2nonc12 | inconclusive: 28.2 µM [inhibitor, single point] | 
48 | CC1(C(=O)Nc2ccc3c(c2)OCCO3)CCN1Cc1ccc2ccccc2c1 (stereo unspecified) | inconclusive: 39.8 µM [inhibitor, single point] | 
49 | CN(Cc1ccc(OC(F)F)cc1)C(=O)c1cccc(S(=O)(=O)N2CCN(c3ccccc3)CC2)c1 |  | inactive: -30.9%
50 | Clc1cccc(Cl)c1C1Nc2cccc3cccc(c23)N1 | inconclusive: 39.8 µM [inhibitor, single point] | 
51 | CCOC(=O)c1[nH]cnc1C(=O)N1CCC(C)CC1 |  | inactive: 1.48%
52 | CCOC(=O)c1[nH]c(C)c(CCC(=O)N2CCN(c3ccc(Cl)cc3)CC2)c1C | inconclusive: 11.2 µM [inhibitor, partial curve, poor fit] | 
53 | NC(c1csc(Nc2ccc(C(=O)c3ccccc3)cc2)n1)c1ccccc1Cl (stereo unspecified) | inconclusive: 39.8 µM [inhibitor, single point] | 
54 | CCOC(=O)c1sc(NC(=O)/C=C/c2cnn(CC)c2C)c(C(=O)OCC)c1C | inconclusive: 31.6 µM [inhibitor, partial curve, poor fit] | 
55 | CCC1CCCCN1S(=O)(=O)c1ccc(C(=O)Nc2nnc(-c3ccccc3Cl)o2)cc1 (stereo unspecified) | inconclusive: 14.1 µM [inhibitor, partial curve] | 
56 | O=C(Cn1ncc(Cl)c(Cl)c1=O)N1CCN(Cc2ccccc2)CC1 | inconclusive: 18.9 µM [inhibitor, single point] | 
57 | COc1ccccc1OCC(=O)Nc1cc(Cl)ccc1N1CCCCC1 |  | inactive: -0.896%
58 | Cc1nn(C(C)C(=O)NCC2CCCO2)c(=O)c2cc3occc3n12 (stereo unspecified) |  | inactive: 8.08%
59 | CCOc1ccc(N(CC(=O)N/N=C/c2ccccn2)S(=O)(=O)c2ccc(Cl)cc2)cc1 | inconclusive: 39.8 µM [inhibitor, single point] | 
60 | Cc1c(Cc2ccccc2)c(=O)oc2c(O)c(O)ccc12 | inconclusive: 39.8 µM [inhibitor, single point] | 
61 | CC(C)(C)OC(=O)N/N=C\c1ccc([N+](=O)[O-])s1 |  | inactive: -10.4%
